Measurements as given in patent publication US20200362022A1.

Biological target: Fc receptors of THP-1 cells (primarily CD32 (FCγRII) and CD64 (FCγRI))
Assay: cell-based or functional assay

B1: HuPT-113D IgG4 (II) (antibody)
heavy: QVQLVQSGAEVKKPGASVKVSCKASGYTFTSYWIHWVRQAPGQGLEWIGVIDPSDSYTRYNQKFKGRVTMTVDTSTSTAYMELRSLRSDDTAVYYCTTWEVDYWGQGTTVTVSSASTKGPSVFPLAPCSRSTSESTAALGCLVKDYFPEPVTVSWNSGALTSGVHTFPAVLQSSGLYSLSSVVTVPSSSLGTKTYTCNVDHKPSNTKVDKRV[… human IgG4 Fc with S228P (EU numbers) …]
light: DIVMTQSPLSLPVTPGEPASISCRSSQSLVHSDGNTYLHWYLQKPGQSPQLLIYKVSNRFSGVPDRFSGSGSGTDFTLKISRVEAEDVGVYYCSQSTHVPWTFGGGTKVEIKRTVAAPSVFIFPPSDEQLKSGTASVVCLLNNFYPREAKVQWKVDNALQSGNSQESVTEQDSKDSTYSLSSTLTLSKADYEKHKVYACEVTHQGLSSPVTKSFNRGEC
B1 was tested, and the EC50 of cytokine induction in THP-1 cells, fold over HuPT-113D IgG1 (II) (times higher than the IgG1) was under 30.
